The whole screen tested about 52,000 compounds, of which about 4,300 (8.3%) were called active. Rule as the data show it: active = survival mostly below about 52% (no sharp cut-off); inactive = mostly above about 56%. Some of the results follow.
What follows are compounds tested on DeltatarO mutant (assay: growth inhibition of S. aureus wild type versus tarO mutant, primary screen, teichoic acid synthesis inhibitors, RN4220, OD600 (AID 463173)). Conditions: OD600, 18 h, hits give low values, screened at 18.75 µg/mL (by protocol).
For `COc1cccc(CNC(=O)Cn2c(=O)cc(C)c3c(C)nn(C)c32)c1OC`, the survival was inactive: 80%.
In the case of `Cc1cccc(N(C)C(=O)C2CCC(CNS(=O)(=O)c3cccc4nsnc34)CC2)c1` (configuration not stated), the survival is reported as inactive: 65%.
`Cc1ccc(OCCn2c(CNc3ccccc3C)nc3ccccc32)cc1` was tested, and the survival was active: 42%.
In the case of `Cn1c(C(=O)NCc2ccccc2Cl)cc2sc(Cl)cc21`, the survival is reported as inactive: 64%.
In the case of `Cc1cc(NC(=O)c2cnn(-c3ccccc3)c2-n2cccc2)ccc1Br`, the survival is reported as inactive: 63%.
For `COc1ccc(CCC(=O)NCc2nc3cccnc3n2Cc2cccc(OC)c2)cc1`, the survival was inactive: 101%.
In the case of `COc1ccc(Cl)cc1NC(=O)Cn1nc(C(F)(F)F)c2c1CCC2`, the survival is reported as inactive: 72%.
With `CCC1CN(C(=O)N2CCC(C(=O)N3CCN(c4ccc(F)cc4)CC3)CC2)c2ccccc2O1` (configuration not stated) the survival was inactive: 62%.
`CCCCc1nn2c(=O)cc(COC(=O)C(C)Oc3ccccc3)nc2s1` (configuration not stated) was tested, and the survival was inactive: 82%.
`Cc1c(C(=O)Nc2ccccc2Br)oc2ccc(S(=O)(=O)N3CCOCC3)cc12` was tested, and the survival was inactive: 97%.
`CCOC(=O)N1CCc2c(sc3c2c(=O)n(-c2ccc(CC)cc2)c(=O)n3CC(=O)c2ccccc2)C1` was tested, and the survival was inactive: 82%.
With `COc1ccc(NS(=O)(=O)c2ccc3c(c2)CCCN3C(=O)C2CCC2)cc1OC` the survival was inactive: 105%.
In the case of `Cc1ccccc1OCC(=O)Nc1c(C)ccc2nsnc12`, the survival is reported as inactive: 68%.
For `CC(C)c1ccc(S(=O)(=O)c2nnn3c2nc(N2CCOCC2)c2sccc23)cc1`, the survival was inactive: 97%.
With `CC1CCN(S(=O)(=O)c2ccc3c(ccn3CC(=O)NCc3ccc(N(C)C)cc3)c2)CC1` the survival was inactive: 77%.
With `Cc1cc(C)n2ncc(C(=O)Nc3cccc(C(F)(F)F)c3)c2n1` the survival was inactive: 90%.
With `O=C(CSc1nnc(-c2ccncc2)n1-c1ccccc1)Nc1ccc(Br)cc1` the survival was inactive: 73%.
For `CCOc1cc(C)c(C(C)C)cc1S(=O)(=O)n1ccnc1CC`, the survival was active: -3%.
In the case of `CCOc1ccc2nc(N3CCC(C(=O)Nc4ccc(Br)cc4F)CC3)sc2c1`, the survival is reported as inactive: 81%.
With `COc1ccc2c(c1)CC(NC(=O)Nc1ccc(NC(C)=O)cc1)CO2` (configuration not stated) the survival was inactive: 117%.
`CC(C)CNC(=O)c1c(-c2ccccc2)c(-c2ccccc2)nn(C)c1=O` was tested, and the survival was inactive: 50%.
In the case of `Cc1ccccc1Cn1c(=O)n(CCCCC(=O)NCc2ccccc2Cl)c(=O)c2ccccc21`, the survival is reported as inactive: 93%.
In the case of `O=C(NCc1ccccc1Cl)c1ccc(NC(=O)c2nsc3ccccc23)cc1`, the survival is reported as inactive: 84%.
`COc1ccccc1CNC(=O)C1CCN(Cc2cc3ccccc3n2Cc2cccc(C)c2)CC1` was tested, and the survival was inactive: 68%.
In the case of `C[n+]1cccc(O)c1I`, the survival is reported as inactive: 53%.
For `CCOC(=O)c1c(C)oc2nc(C)nc(NCCCN3CCN(c4cc(Cl)ccc4C)CC3)c12`, the survival was inactive: 83%.
For `CCOC(=O)c1cccc(NC(=O)Nc2ccc3c(c2)N(C)C(=O)c2ccccc2S3)c1`, the survival was inactive: 92%.
`Cc1ccc(-c2noc(-c3nnn(CC(=O)Nc4cccc(C(F)(F)F)c4)c3N)n2)cc1` was tested, and the survival was inactive: 74%.
`CCCNC(=O)c1c(NC(=O)c2ccc(C)cc2)sc2c1CCCCC2` was tested, and the survival was inactive: 65%.
`CC(=O)N1CCOc2cc(S(=O)(=O)Nc3cc(C(F)(F)F)ccc3Cl)c(C)cc21` was tested, and the survival was inactive: 94%.
`O=C1S/C(=C/c2ccccc2)C(=O)N1CO` was tested, and the survival was inactive: 79%.
For `O=S(=O)(NC1CCCC1)c1ccc(-n2cnnn2)cc1`, the survival was inactive: 94%.
With `COc1ccc2c(c1)c1c(c(=O)n(Cc3ccccc3)c(=O)n1Cc1ccccc1)n2C` the survival was active: -1%.
In the case of `CCOC(=O)Nc1cccc(C(=O)O)c1`, the survival is reported as inactive: 71%.
In the case of `CCSc1ncc(Cl)c(C(=O)N(Cc2ccc(C(C)(C)C)cc2)C2CCS(=O)(=O)C2)n1` (configuration not stated), the survival is reported as active: 42%.
With `O=C(O)c1cccnc1SCc1cccc(Cl)c1` the survival was inactive: 79%.
`COc1ccc(S(=O)(=O)Cc2ccc(C(=O)N3CCN(c4cc(C)ccc4C)CC3)o2)cc1` was tested, and the survival was inactive: 130%.
`CS(=O)(=O)N1C(=O)CCC1=O` was tested, and the survival was inactive: 101%.
In the case of `O=C(Nc1cccc(-c2nc3ccccc3[nH]2)c1)c1c(F)cccc1F`, the survival is reported as active: 37%.
For `O=C(NN=C1CCCC1)c1cc(-c2ccccc2)n[nH]1`, the survival was inactive: 111%.
With `O=C(NCCCN1CCN(c2ccccc2F)CC1)C1COc2ccccc2C1` (configuration not stated) the survival was inactive: 92%.
With `Cc1ccc(C(=O)NCC(=O)OCc2cc(=O)n3nc(C4CC4)sc3n2)cc1` the survival was inactive: 68%.
For `CCCS(=O)(=O)N1CCN(C(=O)COc2cccc(C)c2)CC1`, the survival was inactive: 78%.
`Clc1c(-c2nnc(-c3cccs3)o2)sc2ccccc12` was tested, and the survival was inactive: 59%.
For `COc1cc(-c2nc3ccc(Cl)cn3c2Nc2ccc3c(c2)OCO3)ccc1O`, the survival was inactive: 65%.
For `Cn1cc(-c2cc3n(n2)CCC(=O)N3CCCC(=O)Nc2ccccc2Cl)c2ccccc21`, the survival was active: -5%.
With `Cc1ccccc1S(=O)(=O)Cc1ccc(C(=O)NCc2ccccc2Cl)o1` the survival was inactive: 56%.
For `Nc1nn(-c2ccccc2)nc1C(=O)OCc1ccccc1Br`, the survival was active: 11%.
For `Cc1ccc(NC(=O)c2cc(CN3CCOCC3)on2)cc1Cl`, the survival was inactive: 119%.
With `CC1=C(C(=O)Nc2ccc(C)cc2Cl)C2(CCCCC2)OC1=O` the survival was inactive: 128%.
`COc1cc2ccccc2cc1C(=O)Nc1cccc(-c2nc3ccccc3o2)c1` was tested, and the survival was active: 7%.
With `COc1ccc(N2CCN(C(=O)c3cn(C)c4ccc(S(=O)(=O)N(C)C5CCCCC5)cc4c3=O)CC2)cc1` the survival was inactive: 93%.
In the case of `COc1ccc(CNC(=O)C2CCN(S(=O)(=O)c3c(C)noc3/C=C/c3cccs3)CC2)cc1`, the survival is reported as inactive: 93%.
`Cc1ccc(NC(=O)c2c(C(=O)Nc3ccccc3)sc3nc(C)cc(=O)n23)cc1` was tested, and the survival was inactive: 59%.
In the case of `CC(C(=O)NCc1cccc(Br)c1)n1ncn2cccc2c1=O` (configuration not stated), the survival is reported as inactive: 69%.
In the case of `Cc1ccccc1NC(=O)CCOc1ccccc1`, the survival is reported as inactive: 65%.
With `CCOC(=O)c1noc2ncn(CC(=O)Nc3cc(Cl)ccc3OC)c(=O)c12` the survival was inactive: 92%.
In the case of `O=C(O)Cc1sc(Nc2ccc(C(=O)O)cc2)nc1-c1ccccc1`, the survival is reported as inactive: 86%.
In the case of `COc1ccc2c(c1)CCc1c(C(=O)Nc3c(C)nn(Cc4c(Cl)cccc4Cl)c3C)noc1-2`, the survival is reported as inactive: 114%.
For `CC(Sc1nc(-c2ccccc2)cc(C(F)(F)F)n1)C(=O)NN1CCCCC1` (configuration not stated), the survival was inactive: 72%.
`Cc1cccc(NC(=O)CC2S/C(=N/c3nccs3)N(C)C2=O)c1` (configuration not stated) was tested, and the survival was inactive: 90%.
In the case of `CCOC(=O)c1c(C)[nH]c(C)c1S(=O)(=O)NCC(=O)Nc1ccc(CC)cc1`, the survival is reported as inactive: 96%.
For `CCc1ccccc1NC(=O)c1cc2sc(Cl)cc2n1CC`, the survival was inactive: 77%.
`O=C(c1cccs1)c1cn(CCOc2ccc(F)cc2)c2ccccc12` was tested, and the survival was inactive: 128%.
With `CCn1c(=O)c2sccc2n2c(CCC(=O)N3CCN(c4ccccc4OC)CC3)nnc12` the survival was inactive: 136%.
With `O=C(NCCCCc1ccccc1)c1nn(-c2ccccc2F)nc1CO` the survival was inactive: 83%.
`CC(C)OCCCn1c(SCC(N)=O)nc2c(sc3ccccc32)c1=O` was tested, and the survival was inactive: 92%.
For `O=C(c1ccc(CS(=O)c2ccccc2Cl)o1)N1CCN(c2cccc(C(F)(F)F)c2)CC1` (configuration not stated), the survival was inactive: 60%.
In the case of `O=S1(=O)CCC(N2C(=S)SC3CS(=O)(=O)CC32)C1` (configuration not stated), the survival is reported as inactive: 96%.
For `COc1ccc(-c2nnc(SCC(=O)Nc3ccccc3C)o2)cc1OC`, the survival was inactive: 82%.
In the case of `COc1ccccc1CC(=O)NC1CC(C)(C)NC(C)(C)C1`, the survival is reported as inactive: 70%.
In the case of `CCCOc1ccc(C(=O)NCC(c2ccc(OC)cc2)N2CCCCC2)cc1` (configuration not stated), the survival is reported as inactive: 84%.
With `CC(C)NC(=O)Cn1ccc2cc(S(=O)(=O)N3CCCCCC3)ccc21` the survival was inactive: 77%.
In the case of `COc1ccc(-c2cn(-c3ccc(C)cc3)c(S(=O)(=O)CC(=O)Nc3ccccc3)n2)cc1`, the survival is reported as inactive: 172%.
For `Cc1cc(Br)ccc1NC(=O)c1coc(=O)c2ccccc12`, the survival was inactive: 90%.
`Cc1oc2ncn(CC(C)C)c(=O)c2c1C(=O)Nc1cccc(C(F)(F)F)c1` was tested, and the survival was active: -1%.
For `O=C(Nc1ccc(Cl)c(Cl)c1)c1cc(S(=O)(=O)N2CCN(c3cccc(Cl)c3)CC2)ccc1F`, the survival was inactive: 68%.
For `CC(C)c1ccccc1NC(=O)CSc1nnc(COc2ccccc2)o1`, the survival was inactive: 84%.
With `Cc1ccc(CNC(=O)CN(C)S(=O)(=O)c2ccc(Br)s2)cc1` the survival was inactive: 124%.
`Cc1cccc(-n2c(=O)c3c(c4cc(C)ccc4n3C)n(CC(=O)Nc3ccccc3Cl)c2=O)c1` was tested, and the survival was inactive: 80%.
For `CCCCCn1c(=O)[nH]c2cc(C(=O)NCc3ccc(F)cc3)ccc2c1=O`, the survival was inactive: 89%.
For `COCCNC(=O)c1ccc2c(c1)N(Cc1ccc(C(F)(F)F)cc1)C(=O)c1ccccc1S2`, the survival was inactive: 73%.
In the case of `CC(NC(=O)c1ccc(CSc2nc3ccncc3n2Cc2ccc(F)cc2)cc1)c1ccccc1` (configuration not stated), the survival is reported as inactive: 78%.
With `CCOC(=O)C1CCN(C(=O)CN(c2cc(Cl)ccc2OC)S(C)(=O)=O)CC1` the survival was inactive: 95%.
In the case of `Cc1cccc(OCCCSc2nc(-c3ccc(C(C)(C)C)cc3)nc3cc(=O)[nH]n23)c1C`, the survival is reported as inactive: 102%.
`c1ccc2c(c1)CNc1ccccc1C2` was tested, and the survival was inactive: 89%.
In the case of `CC(=O)N1CCc2cc(S(=O)(=O)CCC(=O)N3CCN(c4ccccc4F)CC3)ccc21`, the survival is reported as inactive: 120%.
For `COc1ccccc1Cc1nc2ccccc2nc1SCC(=O)N1CCCc2ccccc21`, the survival was inactive: 83%.
In the case of `Cc1ccccc1-c1noc(-c2cc(C(C)C)[nH]n2)n1`, the survival is reported as inactive: 88%.
In the case of `Cc1ccc2[nH]c(=O)c(CN(CC3COCCO3)C(=O)Nc3ccccc3F)cc2c1` (configuration not stated), the survival is reported as inactive: 96%.
For `Cc1cccc(-n2ncc(C(=O)Nc3ccc4c(c3)OCO4)c2C2CCN(C(=O)OC(C)(C)C)CC2)c1`, the survival was inactive: 80%.
In the case of `COc1ccc(Cl)cc1NC(=O)c1c(NCc2cccs2)sc2c1CCCC2`, the survival is reported as inactive: 71%.

From PubChem BioAssay AID463173 (ICCB-Longwood Screening Facility, Harvard Medical School, 2010)
